Measured values: the BET-seq Pho4 binding data (Le et al. 2018)
The list shows a part of the results. Values were computed here from the reads of four pooled replicates and scatter widely.

Biological target: T1, Pho4 (S. cerevisiae) (UniProt P07270)
T1 sequence: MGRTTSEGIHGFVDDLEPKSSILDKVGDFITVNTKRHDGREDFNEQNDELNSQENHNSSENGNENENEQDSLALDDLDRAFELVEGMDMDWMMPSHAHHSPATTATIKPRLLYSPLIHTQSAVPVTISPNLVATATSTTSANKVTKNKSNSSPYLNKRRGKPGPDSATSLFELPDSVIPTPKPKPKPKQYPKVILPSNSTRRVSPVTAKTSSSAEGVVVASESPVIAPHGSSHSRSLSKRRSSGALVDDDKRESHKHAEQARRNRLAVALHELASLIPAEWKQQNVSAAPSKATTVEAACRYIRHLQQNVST
Test: relative binding free energy (BET-seq); higher = weaker binding
Details: reference: library average

Sequence	relative binding free energy
GTATTCACGTGAATAG	0.25 kcal/mol
GTATTCACGTGCGGAG	0.17 kcal/mol
AAATTCACGTGGGTTC	0.15 kcal/mol
GAGGTCACGTGTTAGA	0.32 kcal/mol
GCGCTCACGTGAGTGG	0.36 kcal/mol
GGAGACACGTGGGATA	-0.06 kcal/mol
TAGCTCACGTGGGGGC	0.15 kcal/mol
TGTAACACGTGAGAGA	0.44 kcal/mol
AAATACACGTGGGTTT	0.02 kcal/mol
GGAAGCACGTGATGTA	0.02 kcal/mol
CGGTACACGTGGATGG	0.09 kcal/mol
TAAGTCACGTGAGTAG	0.31 kcal/mol
CAGTGCACGTGTCGGT	0 kcal/mol
GGTTACACGTGAGAAT	0.43 kcal/mol
AGATTCACGTGAGGGG	0.42 kcal/mol
GGCTTCACGTGGGGGC	0.22 kcal/mol
GGGCCCACGTGAGGGT	0.12 kcal/mol
TGAGTCACGTGGGTAC	-0.08 kcal/mol
TTGAGCACGTGTTTTG	0 kcal/mol
TGCTTCACGTGGAGAT	0.44 kcal/mol
GAGGGCACGTGCGGCT	-0.09 kcal/mol
GTAGGCACGTGAGCGC	0.28 kcal/mol
GACAACACGTGGTGGG	-0.04 kcal/mol

Sequence	relative binding free energy
TAACTCACGTGGTCGG	0.37 kcal/mol
CGTCGCACGTGAGTTG	0.17 kcal/mol
TGTATCACGTGTGGGA	0.1 kcal/mol
GGTTTCACGTGTATAA	0.25 kcal/mol
GTGTGCACGTGAACGG	0.26 kcal/mol
AAGTACACGTGTGTGG	0 kcal/mol
CGGTGCACGTGGATGG	-0.1 kcal/mol
AAAGGCACGTGAGGTT	0.2 kcal/mol
TATGACACGTGGGCTG	-0.27 kcal/mol
TATGGCACGTGGCAAG	-0.12 kcal/mol
CTTGTCACGTGGGTTG	-0.03 kcal/mol
GTAGACACGTGTTAGT	0.09 kcal/mol
GTTAGCACGTGTTCGG	0.1 kcal/mol
GAGGACACGTGGGAAG	0.06 kcal/mol
TCATGCACGTGGCTGT	-0.03 kcal/mol
ATCGGCACGTGGCTAG	-0.07 kcal/mol
AAGATCACGTGTGTCG	0.21 kcal/mol
TTTGGCACGTGAGCTT	0.04 kcal/mol
GGAGGCACGTGGTTCA	0.01 kcal/mol
TTCTCCACGTGTGTGT	-0.01 kcal/mol
GTACACACGTGTAGGG	0.04 kcal/mol
GGCGTCACGTGGTTAG	0.12 kcal/mol
GTGGTCACGTGTAGGA	0.11 kcal/mol

Sequence	relative binding free energy
CTGTGCACGTGGTTAA	0.06 kcal/mol
TCGATCACGTGGGGCT	0.15 kcal/mol
TTTATCACGTGCTGGT	0.16 kcal/mol
TTAGACACGTGTTTAG	-0.04 kcal/mol
GCGGGCACGTGTAGAT	0.37 kcal/mol
GTCTGCACGTGAGGAA	0.43 kcal/mol
TGATGCACGTGTTTGA	-0.05 kcal/mol
CGGTGCACGTGGAGCG	-0.11 kcal/mol
TAAATCACGTGCTTGT	0.05 kcal/mol
AATGACACGTGTTAAG	0.02 kcal/mol
CTGTGCACGTGTATTT	-0.08 kcal/mol
GTTCTCACGTGTAGGT	0.22 kcal/mol
ATATACACGTGTTTCT	-0.05 kcal/mol
TGGAGCACGTGGGCAC	-0.1 kcal/mol
CGTCGCACGTGGGAGG	-0.12 kcal/mol
GAATACACGTGGGTAG	-0.05 kcal/mol
TACCGCACGTGGGTTG	-0.05 kcal/mol
CTCGTCACGTGTTGGG	0.07 kcal/mol
GGGATCACGTGGAGAT	0.15 kcal/mol
CCGTTCACGTGTTGTT	0.19 kcal/mol
AAGGGCACGTGTCGGG	0.05 kcal/mol
TGTGTCACGTGGATCG	0.13 kcal/mol
GGCGGCACGTGGATGC	0 kcal/mol

Sequence	relative binding free energy
TACGTCACGTGACGGG	0.15 kcal/mol
CATGGCACGTGGCGTG	-0.09 kcal/mol
GGGGCCACGTGGGAGA	-0.13 kcal/mol
GGGAGCACGTGGTGTT	-0.02 kcal/mol
TGCTGCACGTGTCTGG	-0.05 kcal/mol
ATTTGCACGTGAGCGA	0.23 kcal/mol
TGCGGCACGTGTGCTA	-0.04 kcal/mol
ATTGTCACGTGTTAGG	0.09 kcal/mol
CCCGGCACGTGGGGGG	-0.34 kcal/mol
GGAGGCACGTGGGACA	-0.2 kcal/mol
GTAGGCACGTGCTTGG	-0.02 kcal/mol
CTGGGCACGTGCTGAG	-0.18 kcal/mol
TCGTGCACGTGTAGTT	-0.09 kcal/mol
AGGTGCACGTGGTACA	-0.11 kcal/mol
AGTCTCACGTGGGACG	0.32 kcal/mol
TGCTTCACGTGTTTTT	0.22 kcal/mol
TGAGACACGTGATTTG	0.07 kcal/mol
TTGGTCACGTGGTGCC	0.08 kcal/mol
GGAAGCACGTGAGGGG	0.06 kcal/mol
TGGCCCACGTGGTTAG	-0.11 kcal/mol
TCTCGCACGTGGGGGC	-0.09 kcal/mol
GTTGGCACGTGCGTAG	0.02 kcal/mol
AGTCTCACGTGAGGAT	0.35 kcal/mol

Sequence	relative binding free energy
CGCAGCACGTGGGGGT	-0.25 kcal/mol
TGTGCCACGTGTAATT	0.07 kcal/mol
ACCTACACGTGTTGGT	0.33 kcal/mol
TTTGGCACGTGGGAAA	-0.11 kcal/mol
AATTTCACGTGAGAAG	0.43 kcal/mol
AAGTTCACGTGAGGAG	0.28 kcal/mol
CGAGTCACGTGGTAGG	-0.04 kcal/mol
ATTGACACGTGTAGAG	0.02 kcal/mol
TTATTCACGTGGTTTA	0.21 kcal/mol
GCCGTCACGTGGTTTG	0.09 kcal/mol
GAATTCACGTGGTATG	0.27 kcal/mol
GTGCTCACGTGTTAGA	0.28 kcal/mol
TCAGGCACGTGTCGGA	0.01 kcal/mol
AGGGTCACGTGTCAGG	0.1 kcal/mol
ATATACACGTGGGCTG	-0.18 kcal/mol
TATTCCACGTGGTTTT	-0.08 kcal/mol
AGGAGCACGTGTATGG	-0.17 kcal/mol
ATTGGCACGTGTACTG	0.06 kcal/mol
AGAATCACGTGTTTGT	0.12 kcal/mol
TAGTGCACGTGCAGTT	0.12 kcal/mol
TAGAGCACGTGATGGG	0 kcal/mol
GGGTACACGTGTACTT	0.14 kcal/mol
GTCGTCACGTGGTGGG	-0.05 kcal/mol
